The RNAGym collection of RNA variant scans (doi:10.1093/nar/gkz1192)
Read counts are not given, so values of variants with three or more changes are uncertain.

B1: CPEB3 Ribozyme (parent)
chain: UAACAGGGGGCCACAGCAGAAGCGUUCACGUCGCAGCCCCUGUCAGAUUCUGGUGAAUCUGCGAAUUCUGCUGUAUAUCUC

Variants of: B1
Assay: self-cleavage, relative activity (ratio to wild type); higher = more cleavage; in vitro, sequencing
How it was run: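 Relative activity was defined as the cleaved/total read fraction for a variant divided by the same fraction for the unmutated ribozyme. CPEB3 self-cleaving ribozyme libraries were made by rounds of error-prone PCR, barcoded, and transcribed in vitro with T7 RNA polymerase for 5 hours at 37°C, and cleavage ran through transcription plus a 15 min DNase I step before EDTA. Illumina sequencing of template-switched reverse transcripts gave the reads, and DNA sequencing mapped the barcodes. Averages come from three batches, using variants with at least 5 reads.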

Variant	self-cleavage
U1C U25C U43A	0.23
U1C U25C U51C	0.14
U1C U25C U54G U74C	0.51
U1C U25C U60C U72C	0.2
U1C U26A A35G U74C	1.37
U1C U26A A35U C39G A45G A75U	0.03
U1C U26A A56U C71U	0.11
U1C U26C A35G U49A A56G U72C	0.31
U1C U26C A35G U58C U60C A64G	0.26
U1C U26C A64G A77U	0.17
U1C U26C U31C A35C U43A U49A	0.39
U1C U26C U31G	0.5
U1C U26C U49C	0.42
U1C U26C U54C	0.43
U1C U26C U54C A57G U67C U78C U80C	0.09
U1C U31A A56G U58A U69A	0.15
U1C U31A U43C U58C U69G	0.09
U1C U31C A77G	0.66
U1C U31C C50A U74G	0.71
U1C U31C U49C U58C U78C	0
U1C U31C U51C U58C	0.28
U1C U41A A47G A64G U80C	0.07
U1C U41A A47U	0.1
U1C U41A A56G U66C	0.06

Variant	self-cleavage
U1C U41C U49A U69A	0.51
U1C U41G G46A U80C	0.35
U1C U43C A45U U60G U76C	0.24
U1C U43C A57G A77G	0.28
U1C U43C U51C U69A U76A	0.28
U1C U48C U60A U80A	0.48
U1C U48C U72C	0.41
U1C U49C A56C	0.26
U1C U49C A56G	1
U1C U49C U69A	0.1
U1C U51C A64G	0.74
U1C U51C U54C A65G	0.42
U1C U54G A56U U78A	0.21
U1C U60C A64U U80C	0.29
U1C U67C U69A	0.42
U1G A2G U26A	0.78
U1G A3G U58C U67C C68U	0.15
U1G A3U U41C A45G U60G U67C	0.09
U1G A15U A21G A64U	0.17
U1G A20G U48C A75G A77G	0.07
U1G A28G U80A	0.97
U1G A45G A56U	0.21
U1G A64C A65U	0.31
U1G C4A C39A A47G U54A U69C	0.11

Variant	self-cleavage
U1G C50A U54A A57G U72A	0.14
U1G G7A C23U U49C C50U U54A	0.05
U1G G9U A45U G70A	0.19
U1G G10A A28G U41A U74C U78A	0.04
U1G U25C U60C A64U U69C G70U	0.14
U1G U41A A57G	0.45
U1G U51C U74C	1.1
U1G U58C U69A	0.12
A2C A3G U31G U51A	0.71
A2C A3U A35G A64G	1.21
A2C A5U C27U A35G U69A	0.27
A2C A13C A20G U43A A77U	0.37
A2C A13G U43A U51G U78A U80A	1.01
A2C A18G C34G U41C A47U	0.06
A2C A28G U51C U58C	0.18
A2C A35G U51C	1.15
A2C A47G G55A U66C	0.23
A2C A47G U58C	0.67
A2C A47G U74C U78A	1.2
A2C C11U U67C U76C	0.13
A2C C32G A57G	0.06
A2C C34A A65U U78C	0.06
A2C G7U G16U U41C G52A U69G	0.06
A2C G9A A28G A45U A47G A57G U72C	0.05

Variant	self-cleavage
A2C U26C A35U	0.4
A2C U31A C38U U54G	0.2
A2C U43A A77C	1.01
A2G A3G A5U A13G A18G U41C	0.71
A2G A3G A13C A20G U51A	0.72
A2G A3G A18G U78C	0.72
A2G A3G A20G A28G U69C	0.54
A2G A3G C37U U48C U51A	0.17
A2G A3G G6C U41A U48C A64G	0.47
A2G A3U G8A A45G U69C U76A	0.08
A2G A5C A20G U54A	0.49
A2G A5G A15U C34U A56U	0.27
A2G A5G A15U U58C U66C	0.08
A2G A5G A64G U80A	0.61
A2G A5G C11U A47G U49C A64G U66C	0.07
A2G A5G C17U U25C C40A U60A A64G	0.07
A2G A5G G6A A15G	0.11
A2G A5G G8C A18G U31A U80A	0.07
A2G A5G G30A A45U U60C	0.11
A2G A5G U25C A35G U74C	0.83
A2G A5G U26C U41C U48C U60C A64U	0.74
A2G A5G U41A A45U A65C G73C	0.1
A2G A5G U54C	0.85
A2G A5U A35G C37U U49C A64G	0.43

Variant	self-cleavage
A2G A5U A35U U78C	0.49
A2G A5U C27G A64G	0.06
A2G A5U G22U	0.26
A2G A5U U49C U54C U80C	0.41
A2G A5U U60C A75U C81A	0.53
A2G A13C U69A	0.47
A2G A13G A18G U49C U60C	0
A2G A13G A64G A77G	0.18
A2G A13G C23U U26C U31C	0.06
A2G A13G G53A	0.68
A2G A13G U25C A56G A77G	0.55
A2G A13G U25C A65G	0.2
A2G A13G U26C	0.5
A2G A13G U31A U54A U60C U74C	0.09
A2G A13U A28C	0.39
A2G A13U A35U U49C U60C A64G	0.11
A2G A13U G16A U31A U41A U66A A75G	0.04
A2G A13U U66C	0.23
A2G A15G A18U C62U U72A	0
A2G A15G A18U U26C	0.09
A2G A15G A20G	0.3
A2G A15G A21G C23U A28G A57G U69A	0.24
A2G A15G A21G U31A U43A	0.37
A2G A15G A28C G46A U48C U69G	0.08

Variant	self-cleavage
A2G A15G A45G U48C U80C	0.05
A2G A15G A47G	0.47
A2G A15G G24A U25C A35G G42A A64U	0.28
A2G A15G U26C U41A U58C U80C	0.08
A2G A15G U66C	0.41
A2G A15U A20G A21G U76C	0.11
A2G A15U A28U G33A U43C	0.2
A2G A15U C29A A64G U69C	0.07
A2G A15U U43C U54A A65G U66C U67C	0.08
A2G A15U U49A U60C	0.14
A2G A15U U54C U78C	0.24
A2G A18C A35U A64U	0.45
A2G A18G A64G	0.54
A2G A18G C37A	0.27
A2G A18G G22U U43C U60C	0.26
A2G A18G U25C U26C A28G U74G U76A	1.06
A2G A18G U26C U41A	0.04
A2G A18G U54C A56U U80C	0.17
A2G A18G U54G	0.46
A2G A18U A28U U41A	0.53
A2G A18U C23U U43C A64G	0.07
A2G A18U G19A U60A U76C U78C	0.14
A2G A18U U26G C37U G70A U72C U74C	0.04
A2G A18U U72A	0.23

Variant	self-cleavage
A2G A20G A21G A47G U69C	0.29
A2G A20G A28U U41C A47U U54C	0.12
A2G A20G C32U	0.36
A2G A20G C50A U54C U67C	0.2
A2G A20G G52U A56U A65G U76C	0.06
A2G A20G U25A U43C U80A	0.09
A2G A20G U25C U58C G73A	0.62
A2G A20G U25C U72A	0.07
A2G A20G U26A A28G	0.61
A2G A20G U41A A57U	0.41
A2G A20G U41A A64G	0.27
A2G A20G U51C U72C	0.36
A2G A20U A21G U41A	0.2
A2G A20U A28U G63A A75G	0.08
A2G A20U A45C A75G U76A	0.11
A2G A20U A56G	0.46
A2G A20U U41C A64G	0.33
A2G A20U U49C U54C C79A	0.24
A2G A21G C81U	0.7
A2G A21G G24U U26A U48C G52C U74C	0.05
A2G A21G U31A U49C	0.06
A2G A21G U41A U48C	0.27
A2G A21U A56G	0.9
